Results as given in PubChem BioAssay AID1919005 (Molecular Pharmacology Branch, DTP, NCI, 2023).
The source holds more than one record for some entries. They are shown here; other results are not. An entry can have further records. Results that share an entry are repeated measurements across runs, samples, wells, individuals or studies. Marks such as (2×) say how often a value occurs here. Dates in brackets are months of testing.

Tested on: 855422-203-R-J1-PDC complex spheroid growth
Assay: Anticancer human tumor 855422-203-R-J1-PDC patient-derived bladder carcinoma cell line growth inhibition [AhR]
Conditions: for viability, T/C: stronger effect = lower value
Description: Multicellular complex tumor spheroid response to aryl hydrocarbon receptor antagonists in combination with a variety of drugs and investigational agents in selected tumor cell lines
The current study was undertaken to assess response to aryl hydrocarbon receptor antagonists in combination with standard-of-care drugs and investigational agents in solid tumor complex spheroid models. Complex spheroids include a stromal component modeled by human endothelial cells (HUVEC) and fibroblasts modeled by human mesenchymal stem cells (MSCs). The concentration ranges selected for each drug and investigational agent were based upon clinically achievable concentrations if the clinical Cmax of the agent was known.
Compounds. The drugs and investigational agents: BAY 2416964 (NSC825713), GNF351 (NSC835774), CH-223191 (NSC835775), CPI-455 (NSC825282), aza-TdCyd (NSC777586), decitabine (NSC127716), belinostat (NSC758774), entinostat (NSC756642), pevonedistat (NSC761192), tazemetostat (NSC777109), talazoparib (NSC765396), olaparib (NSC753686), selinexor (NSC780203), nedisertib (M3814, NSC802822), bortezomib (NSC756655), venetoclax (NSC766270), doxorubicin (NSC123127), elimusertib (BAY189344, NSC800525), ceralasertib (AZD6738, NSC777638), TAK-243 (NSC785004), alisertib (NSC759677), etoposide (NSC141540), topotecan (NSC609699), eribulin (NSC707389), gemcitabine (NSC613327), carboplatin (NSC241240), cisplatin (NSC119875), and SN-38 (NSC673596) were obtained from the National Cancer Institute (NCI) Developmental Therapeutics Program Chemical Repository (32). The FDA-approved anticancer drug set is available from the Developmental Therapeutics Program at https://dtp.cancer.gov/organization/dscb/obtaining/available plates.htm. […] The stock solutions were prepared in dimethyl sulfoxide (DMSO, Sigma-Aldrich, St. Louis, MO, cat. D2650), except for the platinum compounds which were prepared in saline (Quality Biological, Gaithersburg, MD, cat. 114-055-101), at 800-fold the tested concentration and stored at -70 degrees C prior to their use. All drugs and investigational agents were tested over a range starting from a high concentration at or near the clinical Cmax and decreasing in half-log increments. If the clinical Cmax for an agent had not been determined, the highest concentration tested was 10 microM (Table 1).
Cell Culture. All cells were maintained in an incubator at 37 degrees C and 5% CO2 with 95% humidity. The PDC lines were cultured according to standard operating procedures established by the NCI PDMR (https://pdmr.cancer.gov). Briefly, all PDCs were thawed and cultured in Matrigel-coated flasks prepared with a working solution of 1X Ham's F-12 nutrient mix, without supplementation (Invitrogen, Waltham, MA, cat. 11765054), 100 U/mL penicillin-streptomycin (Invitrogen, cat. 15140122), and 2.5% Matrigel (Corning Inc., Corning, NY, cat. 354248) for the first three passages. All PDCs were cultured in complete DMEM/F-12 media containing advanced DMEM/F-12 (Invitrogen, cat. 12634028), 4.9% defined fetal bovine serum, heat inactivated (HyClone Laboratories Inc., Logan, UT, cat. SH30070.03HI), 389 ng/mL hydrocortisone (Sigma-Aldrich, cat. H4001), 9.7 ng/mL human EGF recombinant protein (Invitrogen, cat. PHG0313), 23.4 microg/mL adenine (Sigma-Aldrich, cat. A2786), 97.3 U/mL penicillin-streptomycin (Invitrogen, cat. 15140122), 1.9 mM L-glutamine (Invitrogen, cat. 25030081), and 9.7 microM Y-27632 dihydrochloride (Tocris Bioscience, Bristol, United Kingdom, cat. 1254). The PDCs were cultured in complete DMEM/F12 media without 10 microM Y-27632 dihydrochloride for at least two passages prior to the screen. The established cell lines NCI-H1341 and […] were cultured in DMEM/F-12, HEPES (Invitrogen, cat. 11330032), 5% defined fetal bovine serum (HyClone Laboratories Inc., cat. SH30070.03), ITS premix universal culture supplement [insulin (5 microg/mL), transferrin (5 microg/mL), and selenious acid (5 ng/mL)] […]
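Note: spheroids exposed to agents for seven days before readout.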
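Throughout, for viability, T/C: percent of DMSO vehicle control luminescence viability.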

## COc1cc(Nc2ncc3c(n2)-c2ccc(Cl)cc2C(c2c(F)cccc2OC)=NC3)ccc1C(=O)O
Compound alone
  IC50: 943 nM [2022-05] and 938 nM, > 10 µM [2022-06]

## CC(C)CC(NC(=O)C(Cc1ccccc1)NC(=O)c1cnccn1)B(O)O (stereo unspecified)
Compound alone 0.003 µM
  viability, T/C: 0.9% [2022-05] and 46.1%, 130% [2022-06]

## Cc1cncc(-c2nc(NCCc3c[nH]c4ccccc34)c3ncn(C(C)C)c3n2)c1
Compound alone 0.316 µM
  viability, T/C: 90.7, 93.5, 79, 96.4, 81.8, 87.5, 93.3, 95.6, 93, 80.3, 92.2, 106, 96, 84.8, 93.9, 78.9, 82.7, 84.5, 91, 83.8%
Compound alone 3.16 µM
  viability, T/C: 80.3, 78.3, 83.3 (2×), 85.5, 73, 75.9, 83.7, 87.8, 80.4, 82.9, 82.1, 88.6, 71, 81.3, 70.9, 51.3, 70.4, 77.8, 74.5%
Compound alone 10 µM
  viability, T/C: 15.6, 9.41, 12.3, 13.6, 7.15, 12.6, 11.2, 15.8, 10.4, 17.4, 35.5, 36.9, 41.2, 26.7, 32.5, 18.7, 24.9, 19.5, 23.3, 24.1, 6%

## CC(CO)NC(=O)c1cc(-c2ccc(Cl)cc2)nn(-c2cnn(C)c2)c1=O (stereo unspecified)
Compound alone 0.316 µM
  viability, T/C: 101 (3×), 87.7, 90.5, 92.4, 107, 95.6, 109, 91.6, 99.2 (2×), 99.6, 92.8, 90.6, 111, 95, 95.1, 85.6, 91.3, 89%
